This is an account of results in paper PMC12820563.

The list shows a part of the results. The list includes weakly bound sequences.

The target in this test is T1, MBP-FoxP3dN (UniProt Q99JB6).
T1 sequence: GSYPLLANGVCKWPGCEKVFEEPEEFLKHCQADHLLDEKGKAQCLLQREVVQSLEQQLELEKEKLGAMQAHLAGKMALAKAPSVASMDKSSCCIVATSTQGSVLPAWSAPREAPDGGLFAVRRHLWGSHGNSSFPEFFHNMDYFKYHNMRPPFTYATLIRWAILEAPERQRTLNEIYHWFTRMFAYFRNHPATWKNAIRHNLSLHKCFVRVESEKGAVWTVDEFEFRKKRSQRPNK
In words: PD-seq (MBP pull-down with sequencing). Particulars: 20 mM Tris-HCl pH 7.5, 100 mM NaCl, 1.5 mM MgCl2, 0.4 uM protein, 0.1 uM dsDNA library, 30 min, room temperature, amylose pull-down; high values mean tight binding; double strand, one strand shown.
Take “GATGATTGTTCTCCCAGCTGATGAATTATTCTGCTCGAGTAAACAAATTTTCCTAATCTTTCTGTTCAAGCGCCATCTAC”: the binding signal (RPM ratio (pull-down/input)) was found to be 0.328.

Consider “GATGATTGTTCTCCCAGCTGATGAATTGCTACTATCGAGTAAACAAATTTTCCTAATCTTTCTGTTCAAGCGCCATCTAC”, for which the binding signal (RPM ratio (pull-down/input)) amounted to 0.945.

In the case of “GATGATTGTTCTCCCAGCTGATGAATTCTTACTATCGAGTAAACAAATTTTCCTAATCTTTCTGTTCAAGCGCCATCTAC”, the binding signal (RPM ratio (pull-down/input)) worked out at 0.328.

With “GATGATTGTTCTCCCAGCTGATGAATTCCGGTAGTCGAGTAAACAAATTTTCCTAATCTTTCTGTTCAAGCGCCATCTAC”, the binding signal (RPM ratio (pull-down/input)) stood at 0.384.

On to “GATGATTGTTCTCCCAGCTGATGAATTCTTTTTGTCGAGTAAACAAATTTTCCTAATCTTTCTGTTCAAGCGCCATCTAC”, for which the binding signal (RPM ratio (pull-down/input)) was determined as 0.437.

Consider “GATGATTGTTCTCCCAGCTGATGAATTTTTATCCTCGAGTAAACAAATTTTCCTAATCTTTCTGTTCAAGCGCCATCTAC”, for which the binding signal (RPM ratio (pull-down/input)) was 0.287.

In the case of “GATGATTGTTCTCCCAGCTGATGAATTGCCTTATTCGAGTAAACAAATTTTCCTAATCTTTCTGTTCAAGCGCCATCTAC”, the binding signal (RPM ratio (pull-down/input)) is 0.85.

For the sequence “GATGATTGTTCTCCCAGCTGATGAATTAGAGGACTCGAGTAAACAAATTTTCCTAATCTTTCTGTTCAAGCGCCATCTAC”, the binding signal (RPM ratio (pull-down/input)) is 0.299.

Take “GATGATTGTTCTCCCAGCTGATGAATTAATAACGTCGAGTAAACAAATTTTCCTAATCTTTCTGTTCAAGCGCCATCTAC”: the binding signal (RPM ratio (pull-down/input)) stood at 0.487.

In the case of “GATGATTGTTCTCCCAGCTGATGAATTGGGGTTATCGAGTAAACAAATTTTCCTAATCTTTCTGTTCAAGCGCCATCTAC”, the binding signal (RPM ratio (pull-down/input)) worked out at 0.803.

On to “GATGATTGTTCTCCCAGCTGATGAATTCAATCGCTCGAGTAAACAAATTTTCCTAATCTTTCTGTTCAAGCGCCATCTAC”, for which the binding signal (RPM ratio (pull-down/input)) amounted to 0.344.

On to “GATGATTGTTCTCCCAGCTGATGAATTCTCTGTGTCGAGTAAACAAATTTTCCTAATCTTTCTGTTCAAGCGCCATCTAC”, for which the binding signal (RPM ratio (pull-down/input)) was found to be 0.353.

As to “GATGATTGTTCTCCCAGCTGATGAATTTACTTGGTCGAGTAAACAAATTTTCCTAATCTTTCTGTTCAAGCGCCATCTAC”, the binding signal (RPM ratio (pull-down/input)) was determined as 1.26.

Take “GATGATTGTTCTCCCAGCTGATGAATTTCCACCGTCGAGTAAACAAATTTTCCTAATCTTTCTGTTCAAGCGCCATCTAC”: the binding signal (RPM ratio (pull-down/input)) is 0.248.

Turning to “GATGATTGTTCTCCCAGCTGATGAATTGGGGCTTTCGAGTAAACAAATTTTCCTAATCTTTCTGTTCAAGCGCCATCTAC”, the binding signal (RPM ratio (pull-down/input)) came to 0.848.

Consider “GATGATTGTTCTCCCAGCTGATGAATTATATGGTTCGAGTAAACAAATTTTCCTAATCTTTCTGTTCAAGCGCCATCTAC”, for which the binding signal (RPM ratio (pull-down/input)) was 1.29.

For the sequence “GATGATTGTTCTCCCAGCTGATGAATTACTTATCTCGAGTAAACAAATTTTCCTAATCTTTCTGTTCAAGCGCCATCTAC”, the binding signal (RPM ratio (pull-down/input)) was 0.462.

For the sequence “GATGATTGTTCTCCCAGCTGATGAATTGACCGGCTCGAGTAAACAAATTTTCCTAATCTTTCTGTTCAAGCGCCATCTAC”, the binding signal (RPM ratio (pull-down/input)) came out at 0.209.
